Data on 3 substances can be found in PMC9127577.

By UniProt entry, the sequences of proteins in these tests, tags left out. Where a name states a change or a piece, a line headed by the entry shows the natural chain unless it says otherwise. Chains listed by the source or under a name are the forms on record and can include a tag or linker. Residues count along the entry.
UniProt Q9NVP2: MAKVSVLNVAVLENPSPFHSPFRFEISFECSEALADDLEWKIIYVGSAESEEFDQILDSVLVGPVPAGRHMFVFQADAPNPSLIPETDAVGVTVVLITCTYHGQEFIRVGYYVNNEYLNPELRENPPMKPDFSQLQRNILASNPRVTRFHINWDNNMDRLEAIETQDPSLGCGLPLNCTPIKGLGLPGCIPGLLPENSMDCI
UniProt Q9Y294: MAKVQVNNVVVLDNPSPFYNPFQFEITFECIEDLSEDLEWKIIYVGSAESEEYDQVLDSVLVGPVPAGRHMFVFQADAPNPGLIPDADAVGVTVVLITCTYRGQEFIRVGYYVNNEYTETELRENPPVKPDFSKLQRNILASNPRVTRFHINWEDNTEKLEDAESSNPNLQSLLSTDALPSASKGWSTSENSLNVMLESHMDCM
SFB-tagged ASF1A N-terminal part (residues 1–154): residues 1-154 of Q9Y294
ASF1A Δ91 to 120 (Q9Y294, form named): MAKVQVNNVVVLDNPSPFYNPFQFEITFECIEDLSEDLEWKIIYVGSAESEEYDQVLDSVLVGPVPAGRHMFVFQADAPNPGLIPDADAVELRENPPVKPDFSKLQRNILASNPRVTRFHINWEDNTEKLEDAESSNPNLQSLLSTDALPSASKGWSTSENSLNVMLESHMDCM
UniProt P49959: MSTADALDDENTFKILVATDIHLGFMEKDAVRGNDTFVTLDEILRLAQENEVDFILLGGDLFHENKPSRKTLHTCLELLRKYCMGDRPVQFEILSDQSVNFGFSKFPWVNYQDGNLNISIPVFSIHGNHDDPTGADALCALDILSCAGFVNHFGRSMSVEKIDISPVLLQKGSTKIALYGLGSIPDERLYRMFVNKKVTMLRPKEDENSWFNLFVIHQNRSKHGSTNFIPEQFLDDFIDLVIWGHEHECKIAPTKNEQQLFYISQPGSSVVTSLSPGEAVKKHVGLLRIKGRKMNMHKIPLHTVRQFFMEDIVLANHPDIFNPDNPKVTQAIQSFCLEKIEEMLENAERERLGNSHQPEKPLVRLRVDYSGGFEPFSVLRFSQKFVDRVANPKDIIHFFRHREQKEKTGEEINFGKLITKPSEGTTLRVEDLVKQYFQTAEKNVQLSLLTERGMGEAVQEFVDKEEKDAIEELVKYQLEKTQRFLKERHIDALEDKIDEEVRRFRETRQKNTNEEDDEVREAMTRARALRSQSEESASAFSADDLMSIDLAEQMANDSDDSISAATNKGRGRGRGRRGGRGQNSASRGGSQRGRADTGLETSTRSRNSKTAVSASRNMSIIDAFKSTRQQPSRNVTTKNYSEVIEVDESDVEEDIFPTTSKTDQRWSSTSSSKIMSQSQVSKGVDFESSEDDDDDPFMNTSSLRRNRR

No constants are given. Whether binding was seen depends on the method and setting. Binding seen in cells or lysates may run through a third protein. Some results given as binding are weak or reduced against the parent protein; the word gives no strength. For some assays here: Tags and fused reporters may be left off the sequences shown.

Assay [1] addresses endogenous ASF1B (human (endogenous in 293T)) (UniProt Q9NVP2). Nature of the assay: co-IP; 293T lysate (NETN buffer with turbonuclease) immunoprecipitated with antibodies to endogenous ASF1A or ASF1B overnight, Protein A/G agarose beads, 4 °C; Western blot.
The target of assay [2] is endogenous ASF1A (human (endogenous in 293T)) (UniProt Q9Y294). The description is as above.
The target of the next assay is ASF1A Δ91 to 120 (human) (UniProt Q9Y294). Kind of assay: pull-down; 293T cells transfected with SFB-tagged constructs, lysed in NETN buffer with turbonuclease; pull-down with streptavidin-conjugated beads, 4 °C; Western blot of the endogenous partner (called coimmunoprecipitation in the text).
Assay [3] concerns the target SFB-tagged ASF1A, full length (human) (UniProt Q9Y294). The description is as above.
For assay [4], the target named is SFB-tagged ASF1B, full length (human) (UniProt Q9NVP2). The assay is described as above.
The target in assay [5] is SFB-tagged ASF1A V94R (histone-binding defective mutant) (human) (UniProt Q9Y294). The assay is described as above.
The target in assay [6] is SFB-tagged ASF1A N-terminal part (residues 1–154) (human) (UniProt Q9Y294). The description is as above.
Assay [7] addresses SFB-tagged endogenous RIF1 (replication timing regulatory factor 1), N-terminal knock-in (human) (UniProt Q5UIP0). Nature of the assay: pull-down; lysate of 293T RIF1 SFB N-terminal knock-in cells (NETN buffer with turbonuclease) pulled down with S protein-conjugated beads, 4 °C; Western blot.
Assay [8] deals with T1, SFB-tagged RIF1 truncation mutant, residues 967–1690 (human) (UniProt Q5UIP0).
T1 sequence: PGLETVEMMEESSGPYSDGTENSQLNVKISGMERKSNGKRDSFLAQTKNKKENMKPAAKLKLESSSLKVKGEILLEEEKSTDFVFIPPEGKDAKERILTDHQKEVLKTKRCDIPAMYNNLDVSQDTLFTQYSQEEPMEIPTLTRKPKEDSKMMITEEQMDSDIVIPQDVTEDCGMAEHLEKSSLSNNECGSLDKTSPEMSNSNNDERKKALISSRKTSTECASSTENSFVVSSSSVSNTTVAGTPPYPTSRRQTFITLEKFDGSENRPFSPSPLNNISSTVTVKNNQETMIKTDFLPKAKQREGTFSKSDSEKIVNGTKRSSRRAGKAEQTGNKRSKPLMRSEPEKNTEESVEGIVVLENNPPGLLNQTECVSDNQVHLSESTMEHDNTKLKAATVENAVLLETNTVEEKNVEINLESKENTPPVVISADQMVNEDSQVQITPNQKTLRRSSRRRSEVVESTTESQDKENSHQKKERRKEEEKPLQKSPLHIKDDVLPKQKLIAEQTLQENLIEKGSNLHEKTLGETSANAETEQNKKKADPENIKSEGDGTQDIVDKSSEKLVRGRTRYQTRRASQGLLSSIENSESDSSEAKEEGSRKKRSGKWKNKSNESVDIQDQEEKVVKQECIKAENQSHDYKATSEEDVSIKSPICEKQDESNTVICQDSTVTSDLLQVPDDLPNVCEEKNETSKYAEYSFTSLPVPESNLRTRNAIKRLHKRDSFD
Nature of the assay: pull-down; 293T cells transfected with SFB-tagged constructs, lysed in NETN buffer with turbonuclease; pull-down with streptavidin-conjugated beads, 4 °C; Western blot of the endogenous partner (called coimmunoprecipitation in the text).

Assay [9] addresses T2, SFB-tagged RIF1 truncation mutant, residues 967–1350 (human) (UniProt Q5UIP0).
T2 sequence: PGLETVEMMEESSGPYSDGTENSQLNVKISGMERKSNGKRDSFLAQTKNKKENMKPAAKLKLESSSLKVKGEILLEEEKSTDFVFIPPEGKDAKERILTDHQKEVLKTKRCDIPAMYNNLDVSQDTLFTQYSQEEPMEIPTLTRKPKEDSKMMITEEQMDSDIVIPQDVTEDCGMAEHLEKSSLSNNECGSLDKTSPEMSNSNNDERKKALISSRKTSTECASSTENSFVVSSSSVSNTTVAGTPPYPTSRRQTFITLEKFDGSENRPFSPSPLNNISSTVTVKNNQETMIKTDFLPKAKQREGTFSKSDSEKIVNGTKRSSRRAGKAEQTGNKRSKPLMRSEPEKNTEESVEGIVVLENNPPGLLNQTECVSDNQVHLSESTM
Described as above.

With “endogenous RIF1 (replication timing regulatory factor 1) (from UniProt Q5UIP0-2 1-2446)”, the binding result in [1] is “binds weakly”; in assay [2] it was “binds”; with ASF1A Δ91 to 120 (human), “no binding”; in [3] it was “binds”; in assay [4], “binds”; in assay [5] it was “binds”. For the same substance, the binding entry in [6] was “binds”.
Regarding “MRN complex (MRE11–RAD50–NBS1) (from UniProt P49959 1-708; Q92878 1-1312; O60934 1-754)”, the binding entry in [7] is “binds”.
Turning to “endogenous ASF1A (from UniProt Q9Y294 1-204)”, the binding result in assay [8], in assay [9] and in [7] was “binds” in each case.
